Results reported in publication PMC4336329 (PLoS ONE, 2015).
Hit rate of the full screen: of about 310,000 compounds, about 2,200 (0.71%) showed an effect of 50% or more. Effects have a minus sign here. This is one part of the list.

Molecular target: human ether-à-go-go-related gene (hERG) potassium channel (human, UniProt Q12809)
Test: primary screen, population patch clamp on CHO cells stably expressing hERG

human ether-à-go-go-related gene (hERG) potassium channel, sequence (Q12809 whole entry, looked up): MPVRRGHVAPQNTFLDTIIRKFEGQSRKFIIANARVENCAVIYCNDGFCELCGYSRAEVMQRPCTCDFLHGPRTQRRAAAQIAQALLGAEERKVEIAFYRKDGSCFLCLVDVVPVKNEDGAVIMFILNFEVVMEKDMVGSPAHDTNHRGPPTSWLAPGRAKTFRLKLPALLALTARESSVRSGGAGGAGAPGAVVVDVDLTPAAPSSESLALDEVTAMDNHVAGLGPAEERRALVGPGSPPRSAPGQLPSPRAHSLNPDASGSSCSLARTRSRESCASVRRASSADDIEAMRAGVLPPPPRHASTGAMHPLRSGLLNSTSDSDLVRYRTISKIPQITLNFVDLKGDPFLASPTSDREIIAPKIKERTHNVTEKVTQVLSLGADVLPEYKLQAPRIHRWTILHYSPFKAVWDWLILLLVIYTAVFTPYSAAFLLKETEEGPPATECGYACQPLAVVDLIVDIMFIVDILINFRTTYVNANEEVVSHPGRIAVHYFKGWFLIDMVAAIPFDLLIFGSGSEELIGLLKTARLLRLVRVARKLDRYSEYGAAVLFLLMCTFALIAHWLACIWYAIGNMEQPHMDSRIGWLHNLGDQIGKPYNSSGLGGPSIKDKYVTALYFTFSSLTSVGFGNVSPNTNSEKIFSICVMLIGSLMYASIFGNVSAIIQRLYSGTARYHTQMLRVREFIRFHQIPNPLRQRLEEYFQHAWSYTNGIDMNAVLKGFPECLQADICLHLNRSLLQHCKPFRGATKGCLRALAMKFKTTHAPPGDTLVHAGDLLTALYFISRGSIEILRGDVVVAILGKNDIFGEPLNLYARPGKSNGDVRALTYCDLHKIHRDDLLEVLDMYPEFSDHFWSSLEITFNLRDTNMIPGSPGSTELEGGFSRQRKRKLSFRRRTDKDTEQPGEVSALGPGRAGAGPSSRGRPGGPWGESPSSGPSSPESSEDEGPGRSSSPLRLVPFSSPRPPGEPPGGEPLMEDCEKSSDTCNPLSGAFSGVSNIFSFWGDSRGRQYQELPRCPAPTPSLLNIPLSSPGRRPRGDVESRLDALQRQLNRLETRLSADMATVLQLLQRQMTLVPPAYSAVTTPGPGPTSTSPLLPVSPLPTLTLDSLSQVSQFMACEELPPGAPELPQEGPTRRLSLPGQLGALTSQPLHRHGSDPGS

In order of rising “hERG current change (%, negative = inhibition) at 1uM” value:
1. COc1ccccc1CN1CCN(C(CC(C)C)c2nnnn2Cc2cccs2)CC1.Cl (stereo not shown)  -24.5%
2. O=C(O)C(=O)O.O=[N+]([O-])c1cccc(OCCN2CCC(Cc3ccccc3)CC2)c1  -23.6%
3. CCOC(=O)CC1C(=O)NC2CCCCC2N1C(=O)Nc1ccc(Cl)cc1 (stereo not shown)  -10.6%
4. O=C(CCn1c(=O)c2ccccc2n(Cc2cccc([N+](=O)[O-])c2)c1=O)N1CCc2ccccc2C1  -4.9%
5. Cc1ccc(-c2nc3nc4ccccc4nc3n2Cc2ccco2)cc1  -3.4%
6. CCOc1ccc(NC(=O)C(=O)NCc2ccncc2)cc1  -3.08%
7. CC(=O)NS(=O)(=O)c1ccc(NC(=O)c2ccc(S(=O)(=O)N3CCCC3)cc2)cc1  -2.94%
8. CC1CCCCN1CCNC(=O)c1ccc2c(c1)N(Cc1ccccc1F)C(=O)c1ccccc1S2=O (stereo not shown)  -1.58%
9. O=C(CCN1C(=O)COc2ccccc21)NCCN1CCN(c2ccccc2F)CC1  -1.54%
10. CCOc1ccccc1C(=O)NCC(=O)OCCCOC(=O)CNC(=O)c1ccccc1OCC  -0.0081%
11. CC(C)(C)c1cc(C(=O)N/N=C/c2ccc(O)cc2)n(-c2ccccc2)n1  0.356%
12. Cn1cnnc1SCC(=O)c1cccc([N+](=O)[O-])c1  1.03%
13. CCOc1cc(N2CCOCC2)c(OCC)cc1NC(=O)COC(=O)c1ccc(Cl)cc1N  1.5%
14. Cc1ccccc1N1CC(C(=O)Nc2nnc(SCCN3CCOCC3)s2)CC1=O (stereo not shown)  2.12%
15. Cc1cc(C)nc(SCC(=O)Nc2ccc3c(c2)OCO3)n1  3.75%
16. COCCNC(=O)CN1CCC(n2c(C)nc3cc(C(F)(F)F)ccc32)CC1  5.62%
17. CCOC(=O)C1CCCN(CCC(=O)Nc2ccc(C)c(C)c2)C1.Cl (stereo not shown)  5.91%
18. CCOC(=O)c1cc2c(C)n(-c3ccc(OCC)cc3)c(C)c2cc(C(=O)OCC)c1=O  6.57%
19. O=C(NN1C(=O)c2ccc(-c3ccc4c(c3)C(=O)N(NC(=O)c3cccnc3)C4=O)cc2C1=O)c1cccnc1  6.87%
20. O=C(Oc1cccc(C(=S)N2CCOCC2)c1)c1ccc([N+](=O)[O-])cc1  7.29%
21. Cc1csc(NC(=O)NC2(C(F)(F)F)Oc3ccccc3O2)n1  7.89%
22. CON(C)c1nc(OCCNC(=O)OCc2ccc(Cl)cc2Cl)nc(N(C)C)n1  8.58%
23. O=C(NCC(=O)N1CCN(c2ccccc2)CC1)c1ccccc1  9.42%
24. COc1ccc(CNC(=O)c2ccc(NC(=O)CC3SC(N4CCCC4)=NC3=O)cc2)cc1 (stereo not shown)  9.76%
25. CC12CCC(C(=O)N(c3ccc(Cl)cc3)C1=O)C2(C)C (stereo not shown)  9.95%
26. COc1ccccc1N(Cc1ccccc1)S(=O)(=O)c1cccc(C(=O)O)c1  10.4%
27. Cc1cc(=O)oc2cc(NC(=O)c3c(Cl)cnn3C)ccc12  10.7%
28. CCN(CC)C1CCN(Cc2c(C(=O)N3CCCCCCC3)nc3ccc(Cl)cn23)C1 (stereo not shown)  10.9%
29. COc1cc(/C=C(\C#N)C(=O)Nc2cccnc2)ccc1OC(C)C  11.3%
30. N/C(=N\OC(=O)C12CC3CC(CC(C3)C1)C2)c1ccncc1  11.4%
31. C=CCn1c2ccccc2c2nnc(SCc3[nH]c(=O)[nH]c3C(=O)CCCCC(=O)OCC)nc21  11.9%
32. Cc1cc(C)nc(NC(=O)C(c2ccccc2)c2ccccc2)c1  12.6%
33. C=CCn1c(N)cc(=O)nc1SC(CC)C(=O)Nc1ccc(C(C)=O)cc1 (stereo not shown)  12.6%
34. Cc1ccccc1Sc1ncnc2onc(C)c12  12.8%
35. COc1ccc(Nc2cc(C(=O)NCCCOC(C)C)c3ccccc3n2)c(OC)c1  13.1%
36. CSc1nnc(CCNC(=O)OC(C)(C)C)o1  13.5%
37. O=C(Nc1cccc(S(=O)(=O)N2CCCCC2)c1)c1ccc(N2CCCC2=O)cc1  13.5%
38. CCCc1oc2c(c(=O)c1CC)C(=O)CC(C)(C)C2  14.4%
39. O=C(N/N=C/c1cc([N+](=O)[O-])ccc1O)C1CC1  14.5%
40. CCOc1cc2c(cc1OCC)C(c1ccccc1OC)OC(=O)C2 (stereo not shown)  14.6%
41. Cc1cc2cc(CNC(=O)c3ccc(Br)o3)ccc2n1C  14.9%
42. COc1cc2nc(SCC(=O)c3ccc(Br)cc3)n3nc(C)nc3c2cc1OC  14.9%
43. O=C(COC(=O)c1ccc([N+](=O)[O-])o1)NC1CCS(=O)(=O)C1 (stereo not shown)  15.2%
44. Oc1cccc2c3c(oc12)CCCC3  15.6%
45. Cc1ccc(NC2SC(=O)N(Cc3cccc(C(=O)O)c3)C2=O)cc1 (stereo not shown)  16%
46. CCCCNS(=O)(=O)c1ccc2nc(SCC(=O)Nc3ccccc3Cl)[nH]c2c1  16.3%
47. CC(C)NC(=O)COc1ccc(/C=N/NS(=O)(=O)c2ccccc2)cc1  17.5%
48. CCC(O)(CC)C(=O)N(Nc1ccc(C)cc1)c1ccc(C)cc1  17.7%
49. COC(=O)C1CN(C(=O)COc2cccc(C)c2C)c2ccccc2O1 (stereo not shown)  17.9%
50. CCCC[C@@H]1CNC(=S)N1CCCc1cc(OC)c(OC)c(OC)c1  18.2%
51. Cc1c(OC(C)C(=O)NCC(O)c2ccccc2)ccc2c3c(c(=O)oc12)CCC3 (stereo not shown)  18.3%
52. COC(=O)CCN(C(C)=O)c1ccc(N)cc1  18.7%
53. CCOC(=O)CSc1nc(-c2cccs2)nc2c1c(=O)n(C)c(=O)n2C  18.8%
54. O=C1c2ccsc2SCCN1Cc1ccc(F)cc1  19.7%
55. O=C(N[C@@H](Cc1ccccc1)C(=O)NC1CCCCCC1)c1ccco1  25.7%
